# The supplement of paper PMC8728848
# Some of the results follow.
# Legend:
# Assay in all cases: glycan array binding signal (z-score within array); higher = stronger binding
# Details in all cases: glycan notation: IUPAC condensed, linker removed
# [1] = molecular target: Gal(b1-3)GlcNAc(b1-3)GalNAc
# Summary of the method: (§1)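 Glycan array binding is given as a within-array Z-score, which can be read as non-binding when negative. The arrays, 3228 of them, came from the Consortium for Functional Glycomics database and were retained only where the protein sequence was available. Z-scores were averaged across arrays of the same protein sequence at different concentrations or buffers and across linkers.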
# [2] = molecular target: Gal(b1-3)GlcNAc(b1-6)Gal(b1-4)GlcNAc
# Summary of the method: as §1
# [3] = molecular target: Gal(b1-3)GlcNAc(b1-6)GalNAc
# Summary of the method: as §1
# [4] = molecular target: Gal(b1-3)GlcNAc(b1-6)[Gal(b1-3)]GalNAc
# Summary of the method: as §1
# [5] = molecular target: Gal(b1-3)GlcNAc6S
# Summary of the method: as §1
# [6] = molecular target: Gal(b1-3)[Fuc(a1-4)]GlcNAc
# Summary of the method: as §1
# [7] = molecular target: Gal(b1-3)[Fuc(a1-4)]GlcNAc(b1-2)Man
# Summary of the method: as §1
# [8] = molecular target: Gal(b1-3)[Fuc(a1-4)]GlcNAc(b1-2)Man(a1-3)[Gal(b1-3)[Fuc(a1-4)]GlcNAc(b1-2)Man(a1-6)]Man(b1-4)GlcNAc(b1-4)[Fuc(a1-6)]GlcNAc
# Summary of the method: as §1
# [9] = molecular target: Gal(b1-3)[Fuc(a1-4)]GlcNAc(b1-3)Gal(b1-3)[Fuc(a1-4)]GlcNAc
# Summary of the method: as §1
# [10] = molecular target: Gal(b1-3)[Fuc(a1-4)]GlcNAc(b1-3)Gal(b1-4)GlcNAc
# Summary of the method: as §1
# [11] = molecular target: Gal(b1-3)[Fuc(a1-4)]GlcNAc(b1-3)Gal(b1-4)[Fuc(a1-3)]GlcNAc
# Summary of the method: as §1
# [12] = molecular target: Gal(b1-3)[Fuc(a1-4)]GlcNAc(b1-6)GalNAc
# Summary of the method: as §1
# [13] = molecular target: Gal(b1-3)[GlcNAc(b1-6)]GalNAc
# Summary of the method: as §1
# [14] = molecular target: Gal(b1-3)[Neu5Ac(a2-6)]GalNAc
# Summary of the method: as §1
# [15] = molecular target: Gal(b1-3)[Neu5Ac(a2-6)]GlcNAc(b1-4)Gal(b1-4)Glc
# Summary of the method: as §1
# [16] = molecular target: Gal(b1-3)[Neu5Ac(a2-6)]GlcNAc(b1-6)Gal(b1-4)Glc
# Summary of the method: as §1
# [17] = molecular target: Gal(b1-3)[Neu5Ac(b2-6)]GalNAc
# Summary of the method: as §1
# [18] = molecular target: Gal(b1-4)Gal
# Summary of the method: as §1
# [19] = molecular target: Gal(b1-4)GalNAc(a1-3)[Fuc(a1-2)]Gal(b1-4)GlcNAc
# Summary of the method: as §1
# [20] = molecular target: Gal(b1-4)GalNAc(b1-3)[Fuc(a1-2)]Gal(b1-4)GlcNAc
# Summary of the method: as §1
# [21] = molecular target: Gal(b1-4)Glc
# Summary of the method: as §1
# [22] = molecular target: Gal(b1-4)Glc6S
# Summary of the method: as §1
binder,measurement,setting,value
SJA (Sophora japonica) (protein) FLGLFNSGGYSSSYQIVAVEFDTYINEWDPKTRHIGIDINSINSTKTVTWGWENGEVAIVLISYKAATETLTVSLTYPSSQTSYILSAAVDLKSILPEWVRIGF,glycan array binding signal (z-score),[1],-0.225
same,glycan array binding signal (z-score),[2],-0.272
same,glycan array binding signal (z-score),[3],-0.298
same,glycan array binding signal (z-score),[4],-0.253
same,glycan array binding signal (z-score),[5],-0.412
same,glycan array binding signal (z-score),[6],-0.178
same,glycan array binding signal (z-score),[7],-0.17
same,glycan array binding signal (z-score),[8],0.39
same,glycan array binding signal (z-score),[9],-0.116
same,glycan array binding signal (z-score),[10],-0.167
same,glycan array binding signal (z-score),[11],-0.196
same,glycan array binding signal (z-score),[12],-0.221
same,glycan array binding signal (z-score),[13],-0.322
same,glycan array binding signal (z-score),[14],-0.205
same,glycan array binding signal (z-score),[15],-0.241
same,glycan array binding signal (z-score),[16],-0.205
same,glycan array binding signal (z-score),[17],-0.147
same,glycan array binding signal (z-score),[18],-0.317
same,glycan array binding signal (z-score),[19],-0.196
same,glycan array binding signal (z-score),[20],-0.187
same,glycan array binding signal (z-score),[21],-0.068
same,glycan array binding signal (z-score),[22],-0.076
